The results in this text go back to the supplement of paper PMC12645437, “Orthogonal IMiD-Degron Pairs Induce Selective Protein Degradation in Cells” (ACS Chemical Biology, 2025).

This is one part of the list.
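Note: jurkat cells carrying a lentiviral library of mutant zinc finger degrons fused to EGFP plus mCherry, mCherry+ cells FACS sorted, degron abundance counted by next-generation sequencing.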

The target in this experiment is no compound (DMSO). Kind of experiment: log2 fold change of degron read counts, EGFP-low vs EGFP+ sorted cells; higher = lower degron-EGFP level without compound (poor expression or instability). The conditions noted are these: compound: DMSO control; 18 h.
In the case of FSCNVCGAFFTQKGNLLRHIKL, the “log2 fold change of degron read counts” value came out at 0.413.
For FYCEVCGASFTQKGNLLRHIKL the value was -1.08; for LQCNQCGFLCTQKGNLLRHIKL, 0.017; for FLCSVCGHEFTQKGNLLRHIKL, -0.665.
For FICNVCGAGFTQKGNLLRHIKL the value was -0.712; for FMCNICGAQFTQKGNLLRHIKL, -0.524; for FKCEVCGAVFTQKGNLLRHIKL, -2.28.
As to FMCEICGHGFTQKGNLLRHIKL, the “log2 fold change of degron read counts” value is -1.95.
To FSCPICGATFTQKGNLLRHIKL belongs -0.242.
For LMCNQCGFECTQKGNLLRHIKL, the “log2 fold change of degron read counts” value amounted to 0.284.
To FHCPVCGANFTQKGNLLRHIKL belongs -0.321; to FHCPVCGAGFTQKGNLLRHIKL, -0.165.
Consider FRCNICGAEFTQKGNLLRHIKL, for which the “log2 fold change of degron read counts” value was -2.64.
For LWCNQCGFRCTQKGNLLRHIKL the value was 2.28; for FICNQCGAYFTQKGNLLRHIKL, -0.234.
To FTCDVCGAYFTQKGNLLRHIKL belongs -1.36; to FHCPICGATFTQKGNLLRHIKL, -0.839; to FKCDQCGADFTQKGNLLRHIKL, -3.43.
For FYCNICGAPFTQKGNLLRHIKL, the “log2 fold change of degron read counts” value came out at 0.341.
For FDCNQCGAEFTQKGNLLRHIKL the value was -1.18; for FFCEICGAGFTQKGNLLRHIKL, -0.723; for FFCEICGHMFTQKGNLLRHIKL, 0.177.
To FFCDVCGAKFTQKGNLLRHIKL belongs -1.42.
For FKCEICGRMFTQKGNLLRHIKL the value was -1.73.
With FACDVCGAYFTQKGNLLRHIKL, the “log2 fold change of degron read counts” value was -1.
For FNCPICGHRFTQKGNLLRHIKL the value was -0.537; for FRCEVCGAIFTQKGNLLRHIKL, -0.202; for FHCPICGADFTQKGNLLRHIKL, -0.403.
For LFCNQCGFRCTQKGNLLRHIKL the value was 1.87; for FTCPICGAFFTQKGNLLRHIKL, 1.24; for FMCNQCGHVFTQKGNLLRHIKL, -0.5.
Consider FKCNQCGRSFTQKGNLLRHIKL, for which the “log2 fold change of degron read counts” value was -1.11.
